# Assay results taken from PMC9549573 (Current biology : CB, 2022).
# B1: His-tagged FMN2 FH2 domain ([…]) (domain or fragment)
# chain: not shown
# Molecular target: T1, GST-tagged FMN2 spindle-periphery localization domain (GST-SLD) (mouse, UniProt Q9JL04 275-734)
# T1 sequence (looked up): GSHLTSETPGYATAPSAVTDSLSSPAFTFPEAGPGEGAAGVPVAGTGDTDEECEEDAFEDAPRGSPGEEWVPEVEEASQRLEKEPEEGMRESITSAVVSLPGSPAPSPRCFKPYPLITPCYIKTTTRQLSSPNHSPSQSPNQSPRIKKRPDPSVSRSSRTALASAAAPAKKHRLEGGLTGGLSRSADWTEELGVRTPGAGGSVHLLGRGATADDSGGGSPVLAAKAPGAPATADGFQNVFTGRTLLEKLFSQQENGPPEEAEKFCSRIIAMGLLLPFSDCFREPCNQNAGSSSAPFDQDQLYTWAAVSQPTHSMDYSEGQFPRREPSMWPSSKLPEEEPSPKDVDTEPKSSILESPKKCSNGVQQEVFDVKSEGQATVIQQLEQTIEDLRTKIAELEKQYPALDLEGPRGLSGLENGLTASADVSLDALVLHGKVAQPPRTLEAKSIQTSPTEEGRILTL
# Assay: pull-down
binder,measurement,value
B1,binding result,binds
